Measurements published in PubChem BioAssay AID326 (DTP/NCI, 2004).
Inconclusive results and toxic doses are left out. Not every entry of the source has a single result; some have several. The list is limited to them. The source may hold further records. The values listed for one entry repeat one measurement across runs, samples, wells, individuals or studies.

Tested on: CD2F1 mice, P388/DHAQ leukemia ip, median survival T/C
Assay: NCI In Vivo Anticancer Drug Screen. Data for tumor model P388 Leukemia resistant to Dihydroxy Anthracenedione; NSC 299195 (intraperitoneal) in CD2F1 (CDF1) mice
Conditions: endpoint: median survival time, vehicle: saline, higher = longer survival
Method: The antitumor activity of compounds was measured in mice bearing transplantable tumors. Survival or tumor size were measured and the results are expressed as the measurement made in the treated group (T) divided by the measurement made in the vehicle treated control group (C). The tumor model used in this assay is P388 Leukemia resistant to Dihydroxy Anthracenedione; NSC 299195 (intraperitoneal) in CD2F1 (CDF1) mice

Structure (SMILES)	T/C (dose: 5.4 mg/kg/injection, schedule: Q04DX002 (ip))	T/C (dose: 21.6 mg/kg/injection, schedule: Q04DX003 (ip))	T/C (dose: 36.0 mg/kg/injection, schedule: Q04DX003 (ip))
N[C@@H](Cc1ccc(N(CCCl)CCCl)cc1)C(=O)O	122 % of control and 165 % of control		
O=c1[nH]cc(F)c(=O)[nH]1		107 % of control and 160 % of control	105 % of control and 156 % of control
